Source: article PMC3519909

Substrate: OC[C@H]1O[C@@](CO)(O[C@H]2O[C@H](CO)[C@@H](O)[C@H](O)[C@H]2O)[C@@H](O)[C@@H]1O
Assay: glucose oxidase/peroxidase coupled glucose release
Format: biochemical, Saccharomyces cerevisiae
Details: Michaelis-Menten or Hill fit

B1: Mal12 (Saccharomyces cerevisiae S288C) (protein)
chain: MTISDHPETEPKWWKEATIYQIYPASFKDSNNDGWGDLKGITSKLQYIKDLGVDAIWVCPFYDSPQQDMGYDISNYEKVWPTYGTNEDCFELIDKTHKLGMKFITDLVINHCSTEHEWFKESRSSKTNPKRDWFFWRPPKGYDAEGKPIPPNNWKSFFGGSAWTFDETTNEFYLRLFASRQVDLNWENEDCRRAIFESAVGFWLDHGVDGFRIDTAGLYSKRPGLPDSPIFDKTSKLQHPNWGSHNGPRIHEYHQELHRFMKNRVKDGREIMTVGEVAHGSDNALYTSAARYEVSEVFSFTHVEVGTSPFFRYNIVPFTLKQWKEAIASNFLFINGTDSWATTYIENHDQARSITRFADDSPKYRKISGKLLTLLECSLTGTLYVYQGQEIGQINFKEWPIEKYEDVDVKNNYEIIKKSFGKNSKEMKDFFKGIALLSRDHSRTPMPWTKDKPNAGFTGPDVKPWFLLNESFEQGINVEQESRDDDSVLNFWKRALQARKKYKELMIYGYDFQFIDLDSDQIFSFTKEYEDKTLFAALNFSGEEIEFSLPREGASLSFILGNYDDTDVSSRVLKPWEGRIYLVK
notes: purified present-day enzyme; expression details in Text S1
B1 showed a Km of 11.96 ± 0.68 mM and a kcat of 26.98 ± 0.42 min⁻¹.
